{"source": "ChEMBL document CHEMBL4888484", "about": "“Replenishing the malaria drug discovery pipeline: Screening and hit evaluation of the MMV Hit Generation Library 1 (HGL1) against asexual blood stage Plasmodium falciparum ,using a nano luciferase reporter read-out” (2022)", "note": "Screen size: about 150,000 compounds; about 540 (0.36%) showed an effect of 50% or more. The list shows a part of the results."}
{"tested_on": "Plasmodium falciparum", "assay": "Primary screen in NF54 nanoGlo assay, in single point, at 2uM, 72h; a lower Z score goes with more inhibition", "assay_type": "functional, Erythrocyte", "conditions": "timepoint 72 hour", "units": {"% Inhibition": "%"}}
{"smiles": "CC(C)CN(C1CCOCC1)C1CN(Cc2ccccc2F)C1", "% Inhibition": -12, "Z score": 2.33}
{"smiles": "COc1ccc(C2CCCN2C(=O)C2CNCCO2)cc1OC", "note": "(stereo not drawn)", "% Inhibition": -2, "Z score": 0.28}
{"smiles": "CC1CN(C(=O)OCC(F)(F)F)CC[S+]([O-])C1", "note": "(stereo not drawn)", "% Inhibition": -2, "Z score": 0.21}
{"smiles": "CC1(C)C(=O)Nc2ccc(C(=O)NC3(c4ccccc4)COC3)cc21", "% Inhibition": -20, "Z score": 3.04}
{"smiles": "CC(C)(C)NC(=O)c1nsc(Cl)c1Cl", "% Inhibition": -11, "Z score": 1.38}
{"smiles": "Cn1ncc2cc(NC(=O)N3CCCN(C(=O)C(F)(F)F)CC3)ccc21", "% Inhibition": -7, "Z score": 1.13}
{"smiles": "CN(C[C@H]1CCCN(c2ncncc2Br)C1)S(C)(=O)=O", "% Inhibition": -1, "Z score": 0.17}
{"smiles": "Cn1nccc1CNC(=O)c1ccc(-c2ccco2)[nH]c1=O", "% Inhibition": -16, "Z score": 1.43}
{"smiles": "CCS(=O)(=O)N1CCC(N(Cc2ccc(F)cc2)C(=O)CN(C2CC2)S(=O)(=O)c2ccc(C)cc2)CC1", "% Inhibition": -11, "Z score": 1.06}
{"smiles": "COCc1cc(NCCc2ccc3c(c2)OCO3)ncn1", "% Inhibition": -5, "Z score": 0.59}
{"smiles": "CCOc1cccc(C[C@@H]2CC[C@H](CN3CCN(C(C)=O)CC3)O2)c1", "% Inhibition": -13, "Z score": 1.64}
{"smiles": "CCOc1ccc(-c2nc(C(=O)NCc3ccco3)cs2)cc1OC", "% Inhibition": -7, "Z score": 0.66}
{"smiles": "Cc1nc(CN2C(=O)N[C@@](C)(c3ccc(Cl)s3)C2=O)no1", "% Inhibition": -12, "Z score": 1.05}
{"smiles": "CNC(=O)Cn1cc(-c2c(C)n[nH]c2C)cn1", "% Inhibition": 2, "Z score": -0.3}
{"smiles": "C=CCN(CCOC)C(=O)c1ccoc1", "% Inhibition": -3, "Z score": 0.41}
{"smiles": "O=S(=O)(NC1CCCCC1)c1cc(-c2nc(-c3ccc(Cl)cc3)no2)cs1", "% Inhibition": -11, "Z score": 1.91}
{"smiles": "Cc1cccc(C(=O)N2CCC3(CC2)OC[C@@H](C(=O)N2CCN(C)CC2)N3C(=O)c2ccc(F)cc2)c1", "% Inhibition": -4, "Z score": 0.47}
{"smiles": "CN1C(=O)C(=O)N(CN2CCC(Cc3ccccc3)CC2)C1=O", "% Inhibition": -13, "Z score": 1.82}
{"smiles": "O=C(C1C2CCC(O2)C1C(F)(F)F)N1CCc2ccnc(O)c2C1", "note": "(stereo not drawn)", "% Inhibition": 1, "Z score": -0.09}
{"smiles": "COc1ccc(-c2noc(Cn3cnc4ccccc4c3=O)n2)cc1", "% Inhibition": -14, "Z score": 1.86}
{"smiles": "Cc1ccc([C@H]2C=NN(c3ccc(Br)cc3)C2=O)cc1", "% Inhibition": 76, "Z score": -2.14}
{"smiles": "CN(CCO)C(=O)Nc1cc(Cl)c(Cl)cc1F", "% Inhibition": -5, "Z score": 1.02}
{"smiles": "COc1ccccc1N1CCN(C(=O)c2cc(-c3c(C)nn(C)c3C)[nH]n2)CC1", "% Inhibition": 1, "Z score": -0.08}
{"smiles": "N#Cc1c2n(c(=O)n(CCOc3ccc(Cl)cc3)c1=O)CCC2", "% Inhibition": -26, "Z score": 4.4}
{"smiles": "O=C(CCC1CCOC1)N1CCOCC1c1noc(-c2ccccc2)n1", "note": "(stereo not drawn)", "% Inhibition": -12, "Z score": 2.37}
{"smiles": "Cc1nnsc1C(=O)NCc1ccc(-c2ccoc2)cc1", "% Inhibition": -20, "Z score": 2.24}
{"smiles": "O=C(NC[C@]1(O)CCCc2occc21)Nc1ccccc1C(F)(F)F", "% Inhibition": 19, "Z score": -2.4}
{"smiles": "CN(Cc1nnn(CC(=O)N2CCCc3ccccc32)n1)C(=O)c1ccccc1", "% Inhibition": -11, "Z score": 1.49}
{"smiles": "COC(=O)CC1CCCN1C(=O)c1cn2c(n1)CCC(C)C2", "note": "(stereo not drawn)", "% Inhibition": 7, "Z score": -1.39}
{"smiles": "CC(=O)Nc1ccc(C(=O)N2CCC3(CC2)CC3(F)F)cc1", "% Inhibition": -8, "Z score": 1.61}
{"smiles": "O=C1CN(c2cc([C@H]3CCOC3)nc(N3CC(O)C3)n2)CCN1", "% Inhibition": -9, "Z score": 1.01}
{"smiles": "Cc1cc(C)c(S(=O)(=O)Nc2ccc3c(c2)CCCN3S(=O)(=O)c2cccs2)cc1C", "% Inhibition": 6, "Z score": -0.58}
{"smiles": "Cc1cccc(C)c1/N=C1/N=C(N2CCOCC2)N(c2ccc(Cl)cc2)C12CCCCC2", "% Inhibition": 10, "Z score": -1.64}
{"smiles": "Cc1cccc(O[C@@H](C)C(=O)NC2CCN(C3CC3)CC2)c1", "% Inhibition": -3, "Z score": 0.41}
{"smiles": "Cc1cc(C)n(Cc2c(C(=O)NCc3cccc(Br)c3)noc2C)n1", "% Inhibition": 4, "Z score": -0.39}
{"smiles": "COc1cccc(F)c1[C@H](C)NC(=O)N(C)Cc1cnccn1", "% Inhibition": 8, "Z score": -0.79}
{"smiles": "CC(C)n1c(CN2CCN(C)CC2)nc2cc(NC(=O)c3ccco3)ccc21", "% Inhibition": -16, "Z score": 1.41}
{"smiles": "CN(C)c1ncccc1C(=O)N1CC(S(=O)(=O)N2CCOCC2)C1", "% Inhibition": -3, "Z score": 0.53}
{"smiles": "Cc1nc(CC(=O)NC2CCCC2)sc1C(=O)NCc1ccccc1", "% Inhibition": -1, "Z score": 0.11}
{"smiles": "Cc1ccc(C)c(NC(=O)N2CCC3(CC2)c2nccn2CCN3C)c1", "% Inhibition": -9, "Z score": 1.16}
{"smiles": "O=S(=O)(c1cccc(Cl)c1)N1CCC(c2cn(Cc3cccc(F)c3)c3ccccc23)CC1", "% Inhibition": -17, "Z score": 1.51}
{"smiles": "Cc1ccc(-c2c3c(=O)n(C)c(=O)n(C)c3c3n2-c2ccccc2N[C@@H]3c2cccc(C)c2)cc1", "% Inhibition": -5, "Z score": 0.91}
{"smiles": "O=C(CN1CCCCCC1)N1CCc2sccc2C1", "% Inhibition": -8, "Z score": 1.38}
{"smiles": "Cc1cc(N2CC(C)(C(N)=O)C2)c2cccc(F)c2n1", "% Inhibition": -7, "Z score": 1.4}
{"smiles": "Cc1cccc(CN2CC(c3nc(CCN(C)C(=O)C4CCOCC4)no3)C2)c1", "% Inhibition": 5, "Z score": -0.62}
{"smiles": "CC1CCCC(NC(=O)C2N(C(C)c3ccccc3)C(=O)[C@@H]3C(C(=O)Nc4cc(Cl)cc(Cl)c4)[C@@H]4C=C[C@]23O4)C1C", "note": "(stereo partly drawn)", "% Inhibition": -10, "Z score": 1.13}
{"smiles": "C[C@H](NC(=O)CC1CC(C)(C)NC(C)(C)C1)c1ccc(O)cc1", "% Inhibition": -16, "Z score": 1.57}
{"smiles": "CCCN(CC(=O)N1CCc2sccc2[C@@H]1COc1ccc(Cl)cc1)C(=O)c1cccc(F)c1", "% Inhibition": -12, "Z score": 1.89}
{"smiles": "Cn1cc(C(=O)N2CCC3(CC2)CC(=O)N(CCCc2ccccc2)C3)cn1", "% Inhibition": -11, "Z score": 1.4}
{"smiles": "O=c1c2c(ncn1CCc1nsc3ccccc13)NCCC2", "% Inhibition": -1, "Z score": 0.2}
{"smiles": "O=C1CC2(CCN(C(=O)c3cnccn3)CC2)CN1Cc1ccc(F)c(F)c1", "% Inhibition": 2, "Z score": -0.21}
{"smiles": "COCc1ccc(C(=O)N[C@H](C#N)C(C)(C)C)o1", "% Inhibition": 0, "Z score": 0.03}
{"smiles": "O=C(c1ccc(Cl)cc1)c1ccccc1C(=O)n1nnc2ccccc21", "% Inhibition": -1, "Z score": 0.19}
{"smiles": "Cc1cccnc1[C@@H](NC(=O)c1c[nH]c2ncccc12)C(C)(C)C", "% Inhibition": -2, "Z score": 0.27}
{"smiles": "COc1ccc(C(NC(=O)[C@H]2CCCN(C(=O)N(C)C)C2)c2ccc(OC)cc2)cc1", "% Inhibition": 11, "Z score": -2.05}
{"smiles": "Cc1cccc2c(CN3CCC(O)(CO)CC3)c(-c3ccccc3)[nH]c12", "% Inhibition": 3, "Z score": -0.43}
{"smiles": "Cc1cccc(C(=O)NCCOC(N)=O)c1Cl", "% Inhibition": 4, "Z score": -0.77}
{"smiles": "C#CCn1cnc(-c2ccccc2)c1NC(=O)CCc1ccc(C(C)C)cc1", "% Inhibition": -7, "Z score": 0.8}
{"smiles": "Cc1[nH]nc(CCC(=O)N2CCC(CN3CCCC3=O)CC2)c1C", "% Inhibition": -6, "Z score": 0.73}
{"smiles": "O=S(=O)(c1ccco1)N1CC[C@H](Oc2ccccc2)C1", "% Inhibition": 35, "Z score": -1.14}
{"smiles": "CN(Cc1cnc(NS(=O)(=O)c2ccccc2)nc1)C1CCOCC1", "% Inhibition": -23, "Z score": 2.25}
{"smiles": "Cc1ncn(CC(=O)N2CC[C@H](Oc3ccc(N(C)C)nn3)C2)c(=O)c1C", "% Inhibition": -12, "Z score": 1.4}
{"smiles": "CC(C)(CO)NC(=O)C[C@H](O)c1cc(Cl)cc(Cl)c1", "% Inhibition": 6, "Z score": -0.5}
{"smiles": "Cn1cc(-c2cc(CNC(=O)c3ccccc3)ccn2)cn1", "% Inhibition": -10, "Z score": 1.48}
{"smiles": "C[C@H]1c2ccsc2CCN1c1ncnc2nc[nH]c12", "% Inhibition": -6, "Z score": 0.99}
{"smiles": "CC1(C)C[C@@H](NC(=O)[C@H]2CC[C@H](Cn3cnc4ccccc4c3=O)CC2)CCO1", "% Inhibition": -6, "Z score": 0.79}
{"smiles": "CCC[C@H]1CN(c2cc(C)c3cccc(OC)c3n2)C[C@@H]1NC(C)=O", "% Inhibition": -2, "Z score": 0.29}
{"smiles": "Cn1cccc1-c1nnc(C2(c3ccccc3)CCOCC2)o1", "% Inhibition": -7, "Z score": 1}
{"smiles": "Cc1ccc(C)c(NC(=O)CC(=O)NCCN2CCCOC2=O)c1", "% Inhibition": -9, "Z score": 1.41}
{"smiles": "O=C(c1cnc(O)cc1C(F)(F)F)N1CCc2nccnc2C1", "% Inhibition": -13, "Z score": 1.56}
{"smiles": "O=S(=O)(c1cccc(-c2nnc(-c3ccccc3Br)o2)c1)N1CCCCC1", "% Inhibition": 1, "Z score": -0.08}
{"smiles": "CC(C)(C)c1ccc(-c2cc3nc(-c4ccncc4)cc(C(F)(F)F)n3n2)cc1", "% Inhibition": 29, "Z score": -3.27}
{"smiles": "CCn1nc(-c2nn3c(Cc4c(C)noc4C)nnc3s2)cc1C", "% Inhibition": -4, "Z score": 0.49}
{"smiles": "O=C(NC1CCCCC1)[C@@]1(CCO)CC12CCN(c1ncccn1)CC2", "% Inhibition": -5, "Z score": 0.95}
{"smiles": "CCc1nsc(NCCNC(CC)CC)n1", "% Inhibition": 8, "Z score": -1.42}
{"smiles": "CC(=O)N1CCN(c2nc(C3CC3)nc(C)c2Cc2cccc(C)c2)CC1", "% Inhibition": -12, "Z score": 1.59}
{"smiles": "COCC1(CNC(=O)[C@@H](C)CN2CCOCC2)CCC1", "% Inhibition": 2, "Z score": -0.31}
{"smiles": "CC1(C)[C@H]2CC=C(CN3CCN(C(=O)c4nc[nH]n4)CC3)[C@@H]1C2", "% Inhibition": -10, "Z score": 1.71}
{"smiles": "CC1(C)C2CN(c3ncc(C(F)(F)F)s3)CC21", "note": "(stereo not drawn)", "% Inhibition": -3, "Z score": 0.39}
{"smiles": "NC(=O)CN(CCC1CCCCC1)C[C@H]1CCCS(=O)(=O)C1", "% Inhibition": -8, "Z score": 1.4}
{"smiles": "NC(=O)NCc1cc(F)c(Cl)cc1F", "% Inhibition": -7, "Z score": 0.66}
{"smiles": "CC(NC(=O)c1ccc2c(c1)OCCO2)C1CCCO1", "note": "(stereo not drawn)", "% Inhibition": -7, "Z score": 0.98}
{"smiles": "O=C(NC[C@H]1CCCN1c1nccs1)C1CCCC1", "% Inhibition": -14, "Z score": 2.71}
{"smiles": "COCCn1ccn2nc(C(F)(F)F)cc2c1=O", "% Inhibition": -3, "Z score": 0.56}
